In all, about 33,000 sequences were measured (“E-score (-0.5 to 0.5)”: median about -0.041, highest 2% from about 0.37 on). The list shows a part of the results.

In the assay the target is T1, Ecm22 (UniProt Q05958).
T1 sequence: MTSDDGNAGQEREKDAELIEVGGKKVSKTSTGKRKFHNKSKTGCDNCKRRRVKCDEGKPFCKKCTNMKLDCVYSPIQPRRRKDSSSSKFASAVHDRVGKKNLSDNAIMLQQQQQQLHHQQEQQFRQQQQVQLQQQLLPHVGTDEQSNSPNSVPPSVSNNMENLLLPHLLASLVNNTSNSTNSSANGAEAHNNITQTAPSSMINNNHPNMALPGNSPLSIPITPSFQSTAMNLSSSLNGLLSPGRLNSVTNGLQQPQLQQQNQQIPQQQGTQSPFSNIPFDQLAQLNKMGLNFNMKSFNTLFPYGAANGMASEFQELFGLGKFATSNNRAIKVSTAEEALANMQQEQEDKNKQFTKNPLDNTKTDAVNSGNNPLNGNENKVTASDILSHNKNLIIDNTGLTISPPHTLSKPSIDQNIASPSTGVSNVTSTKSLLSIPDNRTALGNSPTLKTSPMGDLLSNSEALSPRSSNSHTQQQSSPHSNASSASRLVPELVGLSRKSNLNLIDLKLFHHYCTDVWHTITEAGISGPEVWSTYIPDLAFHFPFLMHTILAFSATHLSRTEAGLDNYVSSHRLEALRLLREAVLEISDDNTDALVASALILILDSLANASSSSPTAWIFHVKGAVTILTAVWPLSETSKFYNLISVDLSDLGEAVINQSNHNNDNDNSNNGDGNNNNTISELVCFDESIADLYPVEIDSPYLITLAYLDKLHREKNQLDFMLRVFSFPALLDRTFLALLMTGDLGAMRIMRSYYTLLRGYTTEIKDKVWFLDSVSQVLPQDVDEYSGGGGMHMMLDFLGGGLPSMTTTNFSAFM
In words: PBM E-score (8-mer binding enrichment) (E-score (-0.5 to 0.5)); higher = stronger / more preferred TF binding; most listed sequences are background and not binding sites. To be noted: protein concentration: 200 nM; construct: GST-full length. An outline of the steps:
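PURExpress in vitro transcription/translation supplied GST-tagged yeast transcription factors, either full-length or DNA-binding domain. Applied at about 100-200 nM to universal all-10-mer Agilent arrays double-stranded by primer extension, the bound protein was detected with fluorescent anti-GST. E-scores, modified Wilcoxon-Mann-Whitney statistics, were given by the Universal PBM Analysis Suite to ungapped eight-base words pooled with their reverse complements after masliner normalisation.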
Regarding ACATAAAT, the “PBM E-score” value is -0.0004. As for AACCTCCT, the figure is -0.0581. As for GACCTGGA, the figure is -0.102; as for AAAGAATG, 0.0134; as for AGTGGCCC, -0.194.

CAATCCGA: the “PBM E-score” value is 0.16. Consider GCCCCACC, for which the “PBM E-score” value was determined as 0.0628. As for AGCCTAAC, the figure is -0.0712; as for AGAAGATC, 0.1; as for CCCCGGGA, -0.203.

As to ACTACCCA, the “PBM E-score” value was -0.118. Regarding AAACCACC, the “PBM E-score” value was -0.123. In the case of CCTGCGGC, the “PBM E-score” value is -0.277. Consider CCGAGCTC, for which the “PBM E-score” value came out at 0.219. As for AGCAACAT, the figure is -0.112; as for CCAGTGCA, -0.00557; as for TTACAAAA, 0.074.

For the sequence ATAATCAC, the “PBM E-score” value worked out at 0.0687. On to GGCCCAGA, for which the “PBM E-score” value is -0.24. On to AAGCCGAT, for which the “PBM E-score” value came out at 0.0104. In the case of CCGTGCTC it was -0.064; in that of CCTCGTCC, -0.238; in that of CCTCTGAA, -0.0798. As for ATATGTTC, the figure is 0.203; as for GGTATGAC, -0.125. In the case of AACGCACC it was 0.113.

Consider ACTGTATC, for which the “PBM E-score” value came to 0.0611. With ATCTTCGC, the “PBM E-score” value was 0.175.

For the sequence GGAAATAA, the “PBM E-score” value worked out at 0.11. As for AAAAGGGG, the “PBM E-score” value was -0.159. As to ATACAGTC, the “PBM E-score” value was -0.122. In the case of ATGGAATG, the “PBM E-score” value was -0.129. In the case of CCCCGGCA it was -0.256; in that of CATTACAG, -0.0449; in that of AGGCATAG, -0.159.

Turning to TCGTAGAA, the “PBM E-score” value turned out to be 0.384. In the case of ATAGGTGC it was -0.00608; in that of CGAGATAA, 0.264; in that of CGCCATCA, -0.223.

Turning to GGGGTGTA, the “PBM E-score” value is -0.159. As for CGGGTTAA, the figure is 0.252; as for CATGACGG, -0.253. In the case of AGCACCTA it was -0.239. In the case of AACAGAAC it was -0.0853. Turning to TAGAAGGA, the “PBM E-score” value was -0.247. As for AGGCTCTG, the figure is -0.168; as for CACCTTAC, -0.0784; as for ATAGCGTG, 0.0189.

Consider ATTGATTC, for which the “PBM E-score” value turned out to be 0.0698. In the case of ACACATGA it was -0.0752. In the case of ACCGTCTG it was -0.112; in that of AGGATAGC, 0.116. In the case of TCAACTGA it was -0.205; in that of AAATGGTG, -0.0494. In the case of CCGGGCCG, the “PBM E-score” value worked out at 0.0318. Turning to TATCCAGA, the “PBM E-score” value is -0.129. In the case of CAGGTCAG it was -0.0995; in that of GCAGGTCA, -0.0813; in that of AACCGGGT, -0.0312. As for ACACAGAA, the figure is -0.1; as for AAGCAGCC, -0.226; as for GGAAACGA, 0.426. For the sequence TCCGCCGA, the “PBM E-score” value worked out at 0.0363. In the case of AATGCCAT it was 0.00168; in that of AACCGGTT, -0.0174; in that of AGAATTAA, -0.113. In the case of CTAACGTA it was 0.226; in that of GGTATCTA, 0.0426. As for GTAATTAA, the figure is 0.0811. With AGAGTGAC, the “PBM E-score” value is -0.237. On to ACGCTCTC, for which the “PBM E-score” value was 0.112. Consider TCATATGA, for which the “PBM E-score” value is -0.00144. Turning to GATTATGC, the “PBM E-score” value turned out to be 0.172. In the case of ACGGCAAC it was 0.136; in that of GATATAAA, -0.022; in that of CCCGAGCG, 0.173. As for AAGAACCT, the “PBM E-score” value is -0.208.

Consider CGTTGAGA, for which the “PBM E-score” value is -0.0277. In the case of AGGCTTTC it was 0.0396. Consider ACAACTTG, for which the “PBM E-score” value is -0.229. Turning to CTATGTCA, the “PBM E-score” value is -0.157.

Turning to ACTATTGG, the “PBM E-score” value is -0.185. In the case of CCTAATGA it was -0.0616; in that of ACACCACA, 0.0653; in that of ACCCTTGC, -0.182. For TAAATTGA, the “PBM E-score” value is -0.171.
